Data: PubChem BioAssay AID588855 (National Center for Advancing Translational Sciences (NCATS), 2011)
In all, about 410,000 compounds went through this assay and about 5,000 (1.2%) were called active. The inconclusive results got no clear call from the source; some entries with a clear call stand among them for comparison. Calls come from the whole dose curve; as a rule, active = well fitted inhibition curve with a large enough effect; inconclusive = small, poorly fitted or top-dose-only effect; inactive = no such curve, though single readings can be large or run the other way. Potencies of inconclusive entries are doubtful fits and often do not repeat.
% is set by controls: 0 for no effect and ±100 for the full control effect; potency is the fitted concentration of half-maximal effect; tags give direction and shape of the fitted curve.

Experiment: qHTS for Inhibitors of TGF-b; note: nearly all actives have a fitted effect of over 65% in size
Details: HepG2 CAGA-GFP TGF-b/SMAD3 reporter, GFP fluorescence, 18 h, TGF-beta stimulated, 500 pg/mL final; series mostly up to 46.1 µM; activity, negative = inhibition: at the top concentration
Method in brief: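 GFP signal (ex488/em500-530) from TGF-beta-stimulated HEPG2 CAGA-GFP cells, 500 pg/mL final, 18 h at 37 degrees C in DMEM plus 1% FBS, normalized to unstimulated and DMSO-stimulated controls.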
In the case of COc1ccc(C)c2sc(NC(=O)CCS(=O)(=O)c3ccccc3)nc12, the Potency is reported as inconclusive: 31.6 µM [inhibitor, single point].
For COc1ccc(CSCC(=O)N/N=C/c2ccc(OCC(=O)N3CCCCC3)cc2)cc1, the “activity, negative = inhibition” value was inactive: 3.35%.
In the case of COCCCNC(=O)CCc1c(C)nc2c(c(C)nn2-c2ccc(C)cc2)c1C, the “activity, negative = inhibition” value is reported as inactive: -28.7%.
For O=C(C1CCC1)N1CCN(c2ccc(Cl)cc2)CC1, the “activity, negative = inhibition” value was inactive: -9.94%.
For CCCN(CCO)Cc1ccc2ccccc2c1, the Potency was inconclusive: 35.5 µM [inhibitor, single point].
For Clc1ccc(CCNC(c2ccc(Cl)cc2)c2nnc(-c3ccccc3)o2)cc1 (stereo unspecified), the Potency was inconclusive: 14.1 µM [inhibitor, single point].
For CN(Cc1ccc(Cl)s1)C(=O)CCl, the Potency was active: 7.08 µM.
With NS(=O)(=O)c1ccc(N=Nc2nc3[nH]cnc(=S)c3[nH]2)cc1 the Potency was inconclusive: 1.41 µM [inhibitor, full curve, poor fit].
For CCN(CC(=O)Nc1cccc(S(=O)(=O)N2CCOCC2)c1)Cc1ccccc1, the “activity, negative = inhibition” value was inactive: -2.17%.
For O=C1c2[nH]nc(-c3ccccc3O)c2C(c2cccc(O)c2)N1Cc1ccco1 (stereo unspecified), the Potency was inconclusive: 35.5 µM [inhibitor, single point].
In the case of CCOC(=O)c1c(NC(=O)C2CCN(S(=O)(=O)c3cccs3)CC2)sc(C)c1C, the “activity, negative = inhibition” value is reported as inactive: 8.89%.
For CC1CC(C)(C)Nc2ccc(N=O)cc21 (stereo unspecified), the Potency was inconclusive: 3.16 µM [inhibitor, partial curve, poor fit].
For CC(=O)Nc1cc(C(=O)N2CCCC2)ccc1S(=O)(=O)c1ccc(C)cc1, the “activity, negative = inhibition” value was inactive: -1.69%.
For COc1ccc(CNC(=O)C(=O)NCc2ccncc2)cc1, the “activity, negative = inhibition” value was inactive: 2%.
In the case of O=C(Nc1nc2c(F)cccc2s1)c1ccc(S(=O)(=O)N2CCCc3ccccc32)cc1, the “activity, negative = inhibition” value is reported as inactive: 3.12%.
With Cc1ccc(S(=O)(=O)NNC(=O)c2cnn(-c3ccc(Cl)cc3)c2C(F)(F)F)cc1 the Potency was inconclusive: 12.6 µM [inhibitor, partial curve, poor fit].
For CC1CCN(C(=O)CCc2ccc(Oc3cc([N+](=O)[O-])cc([N+](=O)[O-])c3)cc2)CC1, the Potency was inconclusive: 35.5 µM [inhibitor, single point].
For Cc1sc2ncnc(N3CCCCC3)c2c1C, the “activity, negative = inhibition” value was inactive: -18.8%.
In the case of NS(=O)(=O)c1ccc(N2N=C(c3ccc(Br)cc3)CC2c2ccc(F)cc2)cc1 (stereo unspecified), the Potency is reported as inconclusive: 14.1 µM [inhibitor, partial curve, poor fit].
For Cc1ccc(OCC(=O)Nc2nonc2-c2ccc(Br)cc2)cc1C, the Potency was inconclusive: 7.08 µM [inhibitor, partial curve, poor fit].
For Cc1cc(C(=O)CSc2nc3ccccc3c(=O)n2C)c(C)n1Cc1ccc2c(c1)OCO2, the Potency was inconclusive: 2.51 µM [inhibitor, partial curve, poor fit].
For O=C(CNC(=O)c1[nH]cnc1C(=O)N[C@@H](Cc1ccccc1)C(=O)OCc1ccccc1)OCc1ccccc1, the Potency was inconclusive: 35.5 µM [inhibitor, single point].
With COc1ccc(NC(=S)Nc2ncccc2C)c(OC)c1 the Potency was inconclusive: 15.8 µM [inhibitor, single point].
In the case of CCCn1cc(SCC(=O)Nc2cc(C)on2)c2ccccc21, the Potency is reported as inconclusive: 22.4 µM [inhibitor, single point].
For C=CCNC(=O)/C(=C/c1cn(-c2ccccc2)nc1-c1cccc([N+](=O)[O-])c1)NC(=O)c1ccccc1, the Potency was inconclusive: 11.2 µM [inhibitor, partial curve].
For COc1cccc(OC)c1OCCCCc1c(C)n[nH]c1C, the “activity, negative = inhibition” value was inactive: -13.1%.
For Cc1nc2ccccc2n1/N=C/c1ccc([N+](=O)[O-])s1, the Potency was active: 6.31 µM.
For CCC(C)c1ccccc1N1CC(C(=O)Nc2cccc(S(=O)(=O)N3CCOCC3)c2)CC1=O (stereo unspecified), the Potency was inconclusive: 4.47 µM [inhibitor, partial curve, poor fit].
In the case of Cc1cc(C(F)F)n2ncc(C(=O)N3CCCCC3)c2n1, the Potency is reported as inconclusive: 5.01 µM [inhibitor, single point].
For CN(C(=O)c1cccc(NC(=O)Cc2cccc(NC(=O)C3CCCN(C(=O)C4CC4)C3)c2)c1)C1CCC1 (stereo unspecified), the Potency was inconclusive: 6.31 µM [inhibitor, single point].
In the case of COc1ccc(-c2nnc(SCCOc3ccccc3C)o2)cc1OC, the “activity, negative = inhibition” value is reported as inactive: -0.332%.
With COc1ccc2cc(C)c3nnc(SCC(=O)Nc4nc(-c5ccc(F)cc5)cs4)n3c2c1 the Potency was inconclusive: 0.891 µM [inhibitor, partial curve].
For CCCCNC(=O)C1(C)CCN1C(=O)c1cc(-c2cccs2)oc1C (stereo unspecified), the Potency was inconclusive: 12.6 µM [inhibitor, partial curve, poor fit].
In the case of CN1CCN(Cc2nc3ccccc3c(=O)n2Cc2nc(-c3cccc([N+](=O)[O-])c3)cs2)CC1, the Potency is reported as inconclusive: 3.16 µM [inhibitor, single point].
With O=C(c1cc(N2C(=O)C3C4CCC(C4)C3C2=O)ccc1Cl)N1CCN(c2ccccc2)CC1 (stereo unspecified) the Potency was inconclusive: 35.5 µM [inhibitor, single point].
For COc1ccc(Cc2c(O)nc(SC)n(C(C)=O)c2=O)cc1, the Potency was inconclusive: 1.78 µM [inhibitor, full curve, poor fit].
With COC(=O)c1ccccc1NC(=O)CCCn1c(C)c2cnn(-c3ccccc3)c(=O)c2c1C the Potency was inconclusive: 1.26 µM [inhibitor, full curve, poor fit].
With Cc1nnc(SC(=O)N2c3ccccc3Sc3ccccc32)s1 the Potency was active: 7.08 µM.
With CC(C)(C)OC(=O)N1CCC[C@H]1c1nnc(SCc2ccccc2Cl)o1 the Potency was inconclusive: 3.55 µM [inhibitor, partial curve, poor fit].
For COc1cccc(C(=O)NC2CC(C)(C)Cc3c2cnn3-c2cccc(F)c2)c1OC (stereo unspecified), the “activity, negative = inhibition” value was inactive: -26.5%.
In the case of COC(=O)c1c(NC(=O)c2cccc(S(=O)(=O)N3CCN(C)CC3)c2)sc(C)c1C, the “activity, negative = inhibition” value is reported as inactive: 15.9%.
In the case of O=C(Nc1ccc(Oc2cccc3ccccc23)cc1)c1ccco1, the Potency is reported as inconclusive: 25.1 µM [inhibitor, single point].
For CCc1ccc(-c2n[nH]nc2C2=CC(=O)C[C@H](c3ccc(F)cc3)C2)cc1, the Potency was inconclusive: 31.6 µM [inhibitor, single point].
In the case of CNC(=O)NC(=O)COC(=O)CCCSc1nc2ccccc2s1, the Potency is reported as inconclusive: 2.82 µM [inhibitor, full curve, poor fit].
With CCOC(=O)c1cc(-c2ccco2)nc2c1c(C)nn2-c1ccccc1 the “activity, negative = inhibition” value was inactive: 0.415%.
With Cc1ccc2nc(NC(=O)CC3Oc4ccccc4NC3=O)sc2c1 (stereo unspecified) the Potency was inconclusive: 3.98 µM [inhibitor, partial curve, poor fit].
With COC(=O)c1c(NC(=O)CCCOc2ccc(C)cc2)sc2c1CCCC2 the Potency was inconclusive: 15.8 µM [inhibitor, single point].
With O=S(=O)(NCCc1csc(-c2cccc(F)c2)n1)c1cc(F)ccc1F the Potency was inconclusive: 20 µM [inhibitor, single point].
With CON/C=N/C(=S)Nc1ncc(C(F)(F)F)cc1Cl the Potency was inconclusive: 2.24 µM [inhibitor, full curve, poor fit].
With C=CCS/C(=N\n1cnc2ccccc2c1=O)N1CCCCC1 the Potency was inconclusive: 22.4 µM [inhibitor, single point].
For N#CC(C#N)=NNc1ccc(S(=O)(=O)N2CCCCC2)cc1, the Potency was active: 7.94 µM.
In the case of COc1cccc(-c2sc3ccc(OC)cc3c2-c2ccc(OCCN3CCCCC3)cc2)c1, the Potency is reported as inconclusive: 0.708 µM [inhibitor, full curve, poor fit].
With CS(=O)(=O)Nc1cccc2cccnc12 the Potency was inconclusive: 35.5 µM [inhibitor, single point].
In the case of Cc1nn(Cc2ccc(Cl)c(Cl)c2)c(C)c1NC(=O)c1cc(-c2ccc3c(c2)OCO3)on1, the Potency is reported as inconclusive: 35.5 µM [inhibitor, single point].
For COc1ccc(-c2cc(-c3ccc(O)cc3)nc(N)c2C#N)cc1OC, the Potency was inconclusive: 35.5 µM [inhibitor, single point].
With COc1ccccc1NC(=O)C(Sc1ccccc1)c1ccccc1 (stereo unspecified) the “activity, negative = inhibition” value was inactive: -1.03%.
In the case of C(=NN=Cc1c[nH]c2ccccc12)c1c[nH]c2ccccc12, the Potency is reported as inconclusive: 28.2 µM [inhibitor, single point].
In the case of Cc1ccc(C)c(-n2nnnc2SCC(=O)Nc2cccc(-c3nnc4n3CCCCC4)c2)c1, the Potency is reported as inconclusive: 35.5 µM [inhibitor, single point].
With CC(C)CC(C(=O)NC(C)(C)C)N(Cc1ccccc1Cl)C(=O)c1snc(C(N)=O)c1N (stereo unspecified) the Potency was inconclusive: 17.8 µM [inhibitor, single point].
With COCC(COS(N)(=O)=O)C(C)C (stereo unspecified) the Potency was inconclusive: 0.1 µM [inhibitor, full curve, poor fit].
With COCCn1c(SCC(=O)Nc2cc(C)cc(C)c2)nc2ccccc2c1=O the “activity, negative = inhibition” value was inactive: 0.231%.
In the case of O=C(CSc1nc(-c2cccs2)cc(C(F)(F)F)n1)Nc1cc(OCC(F)(F)C(F)F)cc([N+](=O)[O-])c1, the Potency is reported as inconclusive: 17.8 µM [inhibitor, single point].
For OCCNc1nc(Nc2cccc(O)c2)nc2ccccc12, the Potency was inconclusive: 11.2 µM [inhibitor, single point].
With CCOC(=O)C1CCN(S(=O)(=O)c2ccc(-c3cc(C(F)(F)F)n(C)n3)s2)CC1 the Potency was inconclusive: 35.5 µM [inhibitor, single point].
For COc1ccc(CN2CCN(Cc3ccc(Br)cc3)CC2)c(OC)c1OC, the Potency was inconclusive: 14.1 µM [inhibitor, partial curve].
For CCOc1cc(/C=N/NC(=O)c2cc3c(ccc4ccccc43)o2)ccc1O, the Potency was inconclusive: 17.8 µM [inhibitor, single point].
